# Out of some 310,000 compounds screened, about 14,000 (4.5%) showed an effect of 50% or more. Effects have a minus sign here. Some of the results follow.
# Target: human ether-à-go-go-related gene (hERG) potassium channel (human, UniProt Q12809)
# Assay: primary screen, population patch clamp on CHO cells stably expressing hERG
# 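Further: peak tail current of the secondary pulse compared with the same well before compound.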
# human ether-à-go-go-related gene (hERG) potassium channel, sequence (Q12809 whole entry, looked up): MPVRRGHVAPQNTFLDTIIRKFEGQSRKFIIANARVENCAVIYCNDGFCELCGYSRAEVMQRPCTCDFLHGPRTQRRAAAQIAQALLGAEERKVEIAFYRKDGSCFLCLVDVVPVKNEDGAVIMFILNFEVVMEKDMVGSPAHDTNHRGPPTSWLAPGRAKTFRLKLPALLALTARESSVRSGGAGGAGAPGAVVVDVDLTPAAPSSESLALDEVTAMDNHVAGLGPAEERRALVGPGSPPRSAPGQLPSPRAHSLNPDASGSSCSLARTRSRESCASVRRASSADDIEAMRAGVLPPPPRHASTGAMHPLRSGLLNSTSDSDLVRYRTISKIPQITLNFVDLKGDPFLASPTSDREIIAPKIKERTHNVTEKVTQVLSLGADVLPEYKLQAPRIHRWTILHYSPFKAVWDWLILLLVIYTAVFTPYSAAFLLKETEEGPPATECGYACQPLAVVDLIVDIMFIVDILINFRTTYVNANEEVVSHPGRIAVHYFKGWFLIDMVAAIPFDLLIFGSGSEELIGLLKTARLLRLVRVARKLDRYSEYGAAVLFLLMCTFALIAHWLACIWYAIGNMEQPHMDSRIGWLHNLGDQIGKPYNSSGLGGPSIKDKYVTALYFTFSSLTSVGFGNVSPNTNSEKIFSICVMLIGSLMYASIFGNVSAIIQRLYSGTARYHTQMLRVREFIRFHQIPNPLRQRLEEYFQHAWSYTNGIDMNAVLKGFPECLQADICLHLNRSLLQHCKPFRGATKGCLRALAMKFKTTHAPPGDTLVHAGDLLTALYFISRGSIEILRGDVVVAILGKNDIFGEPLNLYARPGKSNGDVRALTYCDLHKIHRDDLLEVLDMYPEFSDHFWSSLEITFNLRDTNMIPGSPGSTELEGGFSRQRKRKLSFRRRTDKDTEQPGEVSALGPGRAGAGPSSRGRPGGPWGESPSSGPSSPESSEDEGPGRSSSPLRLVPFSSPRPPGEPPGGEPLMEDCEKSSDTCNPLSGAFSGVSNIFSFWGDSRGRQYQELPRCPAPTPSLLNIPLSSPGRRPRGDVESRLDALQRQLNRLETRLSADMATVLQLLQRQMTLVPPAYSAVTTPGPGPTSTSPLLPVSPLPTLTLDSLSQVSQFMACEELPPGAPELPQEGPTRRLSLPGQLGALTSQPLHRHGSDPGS
row,Structure (SMILES),"hERG current change (%, negative = inhibition) at 10uM"
1,Cc1ccc(NC(=O)COC(=O)CCC(=O)c2cccs2)c(C)c1,7.04%
2,COCCNC(=O)CSc1nnc(-c2ccc(C)cc2)c(-c2ccc(C)cc2)n1,-19.2%
3,COc1cccc(NC(=O)C2CCOC2=O)c1 (stereo not shown),26%
4,O=C(NCc1cccs1)c1cc2ccccc2o1,-4.44%
5,CCCCn1c(N)c(N(Cc2ccccc2OC)C(=O)c2cc(CC)c(C)s2)c(=O)[nH]c1=O,4.37%
6,Cc1cc(C(=O)COc2cc(F)ccc2[N+](=O)[O-])c(C)n1C1CC1,-3.02%
7,O=C(O)CCCNC(=O)/C(=C\c1ccccc1F)NC(=O)c1ccccc1,13.4%
8,COc1ccc(OCC(O)CNC(=O)c2sccc2Cl)cc1 (stereo not shown),-6.39%
9,CSC1=C(C#N)C2(CCCC2)C(C#N)=C(N)N1,-5.89%
10,COc1ccc(CCNC(=O)CN(c2ccc(OC)c(OC)c2)S(C)(=O)=O)cc1OC,5.54%
11,COc1ccc(OC)c(C2/C(=C(\O)c3ccc4c(c3)OCCO4)C(=O)C(=O)N2CC2CCCO2)c1 (stereo not shown),1.77%
12,O=C(c1ccc(Cl)c(S(=O)(=O)N2CCCCCC2)c1)N1CCCCC1,-20.7%
13,O=C(NC(=S)Nc1ccc(S(=O)(=O)Nc2nccs2)cc1)c1ccc(Br)o1,20.9%
14,COc1ccc(-c2csc(NC(=O)c3nc(-c4ccccc4)oc3C)n2)cc1,16.3%
15,CC1CCC2(CC1)NC(=O)N(CC(=O)NC(C)c1ccc(F)c(F)c1)C2=O (stereo not shown),-15.9%
16,Cc1cc(=O)[nH]c(SCC(=O)Nc2ccnc3ccccc23)n1,12.2%
17,CCCCN=CC1=C(O)C(C(=O)OC)C(C)(C)CC1=O (stereo not shown),10.1%
18,C=C1CCN([C@@H](C)C(=O)NCCCCCC)S(=O)(=O)c2ccccc21,-35.6%
19,CCOC(=O)c1cc2cc(OC)ccc2[nH]1,-4.86%
20,Cc1oc(-c2ccccc2Cl)nc1CSCC(=O)O,1.18%
21,COc1ccc(C(=O)NC(=S)Nc2nc(C)c(C(=O)N(C)C)s2)cc1,10.3%
22,CC(=O)C1=C(c2ccccc2)OC(N)=C(C#N)C1c1ccc(O)cc1 (stereo not shown),7.26%
23,CN(C)c1ncnc2sc(-c3ccccc3)cc12,-23.6%
24,COc1ccc2c(c1[N+](=O)[O-])CCC/C2=N/OC(=O)c1cccc2ccccc12,21.2%
25,CN(C)CC(=O)Nc1ccc2cn[nH]c2c1,9.99%

# Source: PMC4336329 (PLoS ONE, 2015)
